Values of other authors as cited in EP0410147B1 (priority 1989, dated 1991).

Molecular target: Protease 3C von HRV14 (Human rhinovirus 14, UniProt P03303)
Conditions: cited from earlier work

Sequence of Protease 3C von HRV14 (P03303 1538-1719): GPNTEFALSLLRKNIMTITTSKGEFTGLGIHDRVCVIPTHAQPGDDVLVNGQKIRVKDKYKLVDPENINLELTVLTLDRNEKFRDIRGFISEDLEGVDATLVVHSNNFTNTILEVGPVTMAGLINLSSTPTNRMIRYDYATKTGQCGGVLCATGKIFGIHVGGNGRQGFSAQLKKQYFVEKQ

Which “Inhibierung des Processing von 3C-Precursorformen” value does the source give for `[Cl-].[Cl-].[Zn+2]` [ZnCl₂] here?
Its value is “inhibiert”.
